In all, about 310,000 compounds went through this assay and about 14,000 (4.5%) showed an effect of 50% or more. Effects have a minus sign here. The list shows a part of the results.
Target: human ether-à-go-go-related gene (hERG) potassium channel (human, UniProt Q12809)
Assay: primary screen, population patch clamp on CHO cells stably expressing hERG
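Also: peak tail current of the secondary pulse compared with the same well before compound.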

human ether-à-go-go-related gene (hERG) potassium channel, sequence (Q12809 whole entry, looked up): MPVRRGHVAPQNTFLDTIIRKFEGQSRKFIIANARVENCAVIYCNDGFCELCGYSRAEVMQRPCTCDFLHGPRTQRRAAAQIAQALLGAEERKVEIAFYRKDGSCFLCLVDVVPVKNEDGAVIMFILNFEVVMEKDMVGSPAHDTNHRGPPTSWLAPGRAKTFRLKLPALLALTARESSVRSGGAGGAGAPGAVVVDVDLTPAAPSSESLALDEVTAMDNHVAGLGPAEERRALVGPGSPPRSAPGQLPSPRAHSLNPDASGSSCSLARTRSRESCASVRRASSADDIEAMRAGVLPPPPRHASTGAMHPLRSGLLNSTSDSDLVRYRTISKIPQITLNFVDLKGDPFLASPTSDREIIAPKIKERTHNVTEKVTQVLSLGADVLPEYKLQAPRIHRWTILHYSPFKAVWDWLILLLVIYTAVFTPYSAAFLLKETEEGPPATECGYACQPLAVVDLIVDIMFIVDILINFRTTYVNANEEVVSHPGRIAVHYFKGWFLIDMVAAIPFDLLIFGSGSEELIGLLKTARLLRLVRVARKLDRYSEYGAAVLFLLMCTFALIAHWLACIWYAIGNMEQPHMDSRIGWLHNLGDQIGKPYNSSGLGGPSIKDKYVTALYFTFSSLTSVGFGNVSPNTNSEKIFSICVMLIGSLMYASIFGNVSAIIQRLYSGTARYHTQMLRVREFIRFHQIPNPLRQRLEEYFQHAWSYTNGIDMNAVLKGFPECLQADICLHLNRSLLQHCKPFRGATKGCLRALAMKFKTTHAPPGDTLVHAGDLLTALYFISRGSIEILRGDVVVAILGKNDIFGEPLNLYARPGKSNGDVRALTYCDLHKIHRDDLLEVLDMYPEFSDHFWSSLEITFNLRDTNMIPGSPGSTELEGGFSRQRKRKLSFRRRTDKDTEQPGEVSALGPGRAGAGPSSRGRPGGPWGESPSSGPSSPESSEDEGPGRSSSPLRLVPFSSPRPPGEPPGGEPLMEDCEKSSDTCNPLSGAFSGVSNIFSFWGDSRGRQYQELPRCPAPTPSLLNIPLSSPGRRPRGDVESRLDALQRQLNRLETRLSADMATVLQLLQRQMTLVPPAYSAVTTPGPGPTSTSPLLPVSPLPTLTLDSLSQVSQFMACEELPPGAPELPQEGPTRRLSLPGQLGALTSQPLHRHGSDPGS

SMILES	hERG current change (%, negative = inhibition) at 10uM [%]
COCCNC(=S)NNC(=O)c1ccco1	-6.88
CC(C)c1ccc(NC(=O)C(c2ccccc2)N2CCN(C(=O)c3ccco3)CC2)cc1 (stereo not drawn)	-69.8
CCN1CCc2nc(NC(=O)c3ccc4c(c3)OCCO4)sc2C1	-7.45
CCN(CC)C(=O)c1ccc(S(=O)(=O)c2ccccc2)cc1	17.5
Cc1ccnc(NS(=O)(=O)c2ccc(NC(=O)CN3C(=O)CCC3=O)cc2)n1	10.2
COc1ccc(C(=O)CCC(=O)NCc2cc(OC)cc(OC)c2)cc1	23.5
CCN(CC)C(=O)CN(c1cccc(OC)c1)S(=O)(=O)c1ccc(C)cc1	-11
Cc1[nH]c2ccccc2c1C(=O)C(=O)NCCC1=CCCCC1	13.1
NC(=S)N/N=C/c1ccc2c(c1)OCCO2	16.5
O=C(Cn1cnc2c(oc3nc4c(cc32)CCCC4)c1=O)Nc1cccc(Cl)c1	16.2
C=CCOc1ccccc1CN1CCSCC1	-11.2
CCCN(CCC)C(=O)C1CCN(c2ccc(S(=O)(=O)N3CCOCC3)cc2[N+](=O)[O-])CC1	-22.4
CSc1ccccc1C(=O)C1CCCN(C(=O)CCc2cccnc2)C1 (stereo not drawn)	1.47
Cc1ccc(C(=O)NCc2ccco2)cc1	12.4
Cn1cc([N+](=O)[O-])c(C(=O)N/N=C/c2ccccc2)n1	4.71
O=C(O)C(F)=C1c2ccccc2-c2ccccc21	12.4
COc1ccc(/C=C2\C(=O)ON=C2c2ccccc2)cc1OC	1.35
Cc1nc(Nc2ccc(S(=O)(=O)N3CCCC3)cc2)c2nnn(Cc3ccccc3)c2n1	27.6
Cc1c(Cl)c([N+](=O)[O-])nn1CC(=O)Nc1ccc2c(c1)OCO2	18.4
CCn1cc(S(=O)(=O)CC(=O)NC2CCCCC2)c2ccccc21	7.22
CCOC(=O)CSc1ccc2nnc(-c3cccnc3)n2n1	-31
COc1ccc(-c2nnc(SCC(=O)Nc3ccccc3OC)o2)cc1	13.6
CCn1ccnc1CNC(=O)CC1C(=O)NCCN1CC(c1ccccc1)c1ccccc1 (stereo not drawn)	20.5

SMILES	hERG current change (%, negative = inhibition) at 10uM [%]
CCCCn1c(N)c(N(CC)C(=O)c2cccc(S(=O)(=O)N3CCN(C)CC3)c2)c(=O)[nH]c1=O	14.3
COc1ccc2c(c1)c(/C=N/Nc1nc3ccccc3[nH]1)c(C)n2C	-9.63
Cc1ccc(S(=O)(=O)N2CCOC23CCN(C(=O)C(=O)NCCC(C)C)CC3)cc1	-17.2
Cc1cccc(NC(=O)CCc2nnc3ccc(NCc4ccco4)nn23)n1	6.78
CCOc1ccc(C(=S)N2CCOCC2)cc1	-13.2
Cc1cc(C(=O)N/N=C/c2ccc(-c3ccccc3Cl)o2)n[nH]1	-0.4
COC(=O)c1cc(N=CC2=C(O)CC(C)(C)CC2=O)cc(C(=O)OC)c1	-16.3
O=C(COC(=O)c1ccc(Cl)c(Cl)c1)NC1CCCC1	21.9
Cc1ccc(NC(=O)CC(=O)c2ccc([N+](=O)[O-])cc2)cc1S(=O)(=O)Nc1cccc(Cl)c1	12.4
Cc1ccc(Nc2nc3nonc3[nH]c2=O)cc1Cl	27.1
CC(C)(C)n1nnnc1SCC(=O)Nc1nn(-c2ccccc2)nc1C(N)=O	9.33
CCOC(=O)COc1ccccc1-c1ccno1	2.76
O=C(COC(=O)CN1C(=O)C2CC=CCC2C1=O)Nc1cc(C(F)(F)F)ccc1N1CCOCC1 (stereo not drawn)	-26.8
O=C(/C=C/C(=O)N1CCc2ccccc2C1)N1CCc2ccccc2C1	-12.6
COC(=O)C1=C(c2ccc(F)cc2OCc2ccccc2)C[C@@H]2CC[C@H]1N2C(=O)N1CCCC1	-29.4
CCOc1ccccc1/C=C(\NC(=O)c1ccccc1)C(=O)NCCC(=O)O	5.8
O=C(Nc1ccc(N2CCOCC2)cc1N1CCOCC1)c1cccs1	-1.89
CCOc1ccc(NC(=O)CSc2ncc(-c3ccc(F)cc3)n2Cc2ccco2)cc1	-1.9
Cc1ccc(Cl)cc1N(CC(=O)NC1CCCCC1)S(C)(=O)=O	13.4
Cc1ccc(NC(=O)Cn2c(=O)n(CCCC(=O)NCc3ccco3)c(=O)c3ccccc32)cc1	-4.47
O=C(NNc1ncnc2c1cnn2-c1cccc(Cl)c1)c1ccco1	11
COc1ccc(N=C2C(=O)N3CCCc4cccc2c43)cc1	-13.1
COc1ccc(N(C(=O)CCl)C(C(=O)NCCc2ccccc2)c2cccs2)cc1 (stereo not drawn)	-20.8

SMILES	hERG current change (%, negative = inhibition) at 10uM [%]
CCOc1ccc(/C=N/n2nnnc2N)cc1OCC	13.8
Cc1ccccc1CC(=O)Nc1sc(C(C)C)cc1C(=O)N1CCOCC1	-31.1
COC(=O)[C@H](CCSC)NC(=O)Nc1ccc(OC)cc1OC	-1.35
O=C(C[n+]1cccc(O)c1)Nc1ccc(Br)cc1.O=S(=O)([O-])c1ccc2ccccc2c1	23.7
CC(=O)c1cnc2n(c1=O)CCS2	27.8
C/C(=N\N=C1\NC(=O)C(CC(=O)NCc2ccccc2)S1)C(C)C (stereo not drawn)	14.5
COC(=O)C1=C(C)N(CCc2ccc(OC)c(OC)c2)C(=O)/C1=C\N(C)C	1.86
Cc1cc2c(ccc3[nH]onc32)n1	16.8
Cc1cc(=O)[nH]c2c(C)cc(S(=O)(=O)N3CCOCC3)cc12	9.66
COc1cc(CC(NC(C)=O)C(=O)NC2CCN(c3c(Cc4ccccc4)c(C)nc4ncnn34)CC2)cc(OC)c1 (stereo not drawn)	12
O=C(NC(=S)N1CCCCCC1)c1cccc([N+](=O)[O-])c1	3.51
O=C(NC(=S)Nc1ccc2[nH]c(=O)[nH]c2c1)c1ccccc1F	24.1
CCCCn1c(-c2ccco2)nc2oc3ccccc3c(=O)c2c1=O	-29.2
O=C(CCC1CCCC1)Nc1cccc(Cc2ccncc2)c1	-44.2
O=S(=O)(NCc1cccnc1)c1ccc(Br)c2ccccc12	-9.45
O=C(OCC(=O)N1CCN(C(=O)c2ccco2)CC1)c1ccc(S(=O)(=O)N2CCCCC2)cc1	-30.6
CCOc1ccccc1NC(=O)CSc1ccccc1	-5.11
CC1(C)NC(=O)N(CCCCSc2ccc(Cl)cc2)C1=O	-20.8
Cc1nn(Cc2ccc(Cl)cc2)c2sc(C(=O)OCC(N)=O)cc12	-52.1
Cc1nn(C)cc1S(=O)(=O)N1CCCCC1C (stereo not drawn)	-1.81
Cc1cc(C(=O)OC(C)C(=O)Nc2nc(-c3ccccc3)cs2)c(C)o1 (stereo not drawn)	2.18
O=C(Nc1nc2c(F)cccc2s1)c1ccc([N+](=O)[O-])o1	19.7
COC(=O)c1ccc(CSc2nc(C(F)F)cc(C)c2C#N)o1	-10.5

SMILES	hERG current change (%, negative = inhibition) at 10uM [%]
O=C(O)CCN1C(=O)/C(=C/c2ccc(-c3nc4ccccc4s3)o2)SC1=S	-1.51
Cc1ccc2nc(-c3ccc(SCC(=O)O)nc3)[nH]c2c1	21.2
CCOc1ccc(N=C(NC#N)SC)cc1	2.66
CCC(C)(NC(=O)c1ccccn1)C(=O)NC1CCCC1 (stereo not drawn)	12.8
O=C(CCn1c(=O)oc2ccccc21)NCCCN1CCCC1=O	12
Cc1ccc(NC(=O)Cc2ccccc2)c(C)c1	18.4
COc1cc(N=Nc2cccc(S(N)(=O)=O)c2)c2ccccc2c1N	11.8
Cc1c(O)nc2ccccn2c1=O	-2.92
CSc1cccc(NC(=O)CN(Cc2ccc(Cl)cc2)S(C)(=O)=O)c1	-8.76
COc1ccc(NC(=O)NNC(=O)c2ccc3ccccc3c2O)cc1OC	19.3
O=C(NCCc1ccncc1)c1ccccc1F	6.54
CCc1c(C#N)c(N)nc(SCC(=O)OCc2ccccc2)c1C#N	3.41
COc1ccccc1S(=O)(=O)NCc1ccc(C(=O)NC2CCC(O)CC2)cc1 (stereo not drawn)	7.54
CC(OC(=O)/C=C/c1ccccc1)C(=O)Nc1cccc(C#N)c1 (stereo not drawn)	15.2
CCN(CC)C(=O)CN(C#N)c1nc(NC(C)C)nc(NC(C)C)n1	7.58
COc1ccc(N2CCN(C(=O)COC(=O)CCOc3ccc(C)cc3)CC2)cc1	9.09
COc1cccc2sc(N)nc12	10.9
Cc1c(Br)c([N+](=O)[O-])nn1CC(=O)Nc1ccccn1	-14.7
CC(C)NC(=O)C1CCN(C(=O)C(C(=O)c2ccccc2)n2cc(Cl)ccc2=O)CC1 (stereo not drawn)	6.17
Nc1c2c(nc3ccc(Br)cc13)N(Cc1ccccc1)CC2	-43.5
CCN(Cc1ccccc1)C(=O)c1cccc(S(=O)(=O)N2CCN(c3ccccc3)CC2)c1	-15.8

Source: paper PMC4336329 (PLoS ONE, 2015)
